Results reported in the supplement of paper PMC3334620.
The full ranking holds about 33,000 sequences; the median of “E-score (-0.5 to 0.5)” is about -0.035, and the highest 2% start at about 0.35. The list shows a part of the results.

Target: T1, Pdr3 (UniProt P33200)
T1 sequence: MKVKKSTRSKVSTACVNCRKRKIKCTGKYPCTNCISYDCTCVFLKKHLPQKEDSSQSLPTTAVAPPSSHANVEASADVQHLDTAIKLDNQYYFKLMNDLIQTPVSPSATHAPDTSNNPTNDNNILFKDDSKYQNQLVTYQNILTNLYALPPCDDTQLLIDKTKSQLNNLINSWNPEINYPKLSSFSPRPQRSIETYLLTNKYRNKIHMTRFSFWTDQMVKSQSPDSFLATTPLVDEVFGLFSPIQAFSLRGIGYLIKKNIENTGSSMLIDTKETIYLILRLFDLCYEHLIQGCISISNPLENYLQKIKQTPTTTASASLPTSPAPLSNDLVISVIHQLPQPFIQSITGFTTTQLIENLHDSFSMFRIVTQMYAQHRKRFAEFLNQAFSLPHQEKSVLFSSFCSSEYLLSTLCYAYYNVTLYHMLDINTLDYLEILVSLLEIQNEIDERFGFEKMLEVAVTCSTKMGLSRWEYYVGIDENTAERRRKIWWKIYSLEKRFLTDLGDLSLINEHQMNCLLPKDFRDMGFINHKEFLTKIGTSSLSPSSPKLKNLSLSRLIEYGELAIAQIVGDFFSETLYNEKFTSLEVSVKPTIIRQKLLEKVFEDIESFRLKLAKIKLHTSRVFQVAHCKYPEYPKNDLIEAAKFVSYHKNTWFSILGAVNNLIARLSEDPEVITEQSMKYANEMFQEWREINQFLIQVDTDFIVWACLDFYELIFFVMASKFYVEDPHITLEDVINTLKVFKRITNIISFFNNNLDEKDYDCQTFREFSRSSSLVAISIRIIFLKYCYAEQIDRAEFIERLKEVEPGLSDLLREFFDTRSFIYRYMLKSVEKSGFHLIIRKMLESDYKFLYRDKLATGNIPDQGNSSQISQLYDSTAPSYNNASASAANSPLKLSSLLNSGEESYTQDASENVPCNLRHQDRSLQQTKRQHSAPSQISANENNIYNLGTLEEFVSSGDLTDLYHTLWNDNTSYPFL
Assay: PBM E-score (8-mer binding enrichment) (E-score (-0.5 to 0.5)); higher = stronger / more preferred TF binding; most listed sequences are background and not binding sites
Details: protein concentration: 200 nM; construct: GST-full length
In short: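 Masliner-normalised scans of fluorescent anti-GST signal were the basis for scoring. That signal came from GST-tagged yeast transcription factors applied at about 100-200 nM to double-stranded universal all-10-mer Agilent arrays on fresh or once-stripped slides. Each ungapped eight-base word, pooled with its reverse complement, received an E-score from the Universal PBM Analysis Suite.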

Sequence	PBM E-score
CACAACGG	0.0081
CATGGCCG	0.172
GGTGTTTA	0.0333
CCGAGAGG	0.0579
GTTCGGGA	0.233
GAGCAAGA	0.0319
CAGCCTCG	-0.0552
ATTCCGTG	0.467
ACTATCTA	-0.0229
CAGAAGAG	-0.195
CCGTCGCG	0.323
AAATTTGT	-0.0326
AGGAAGAT	0.0952
GAGAAGAC	-0.218
AGACTAAA	-0.133
CACGCCAG	-0.0644
ATCCGAGC	0.307
CCACGAAG	-0.257
CTTTACCA	-0.316
CCGTGCCG	0.335
CGTACAAA	-0.158
CCTGCCCG	0.2
AGAATGTG	-0.22
GTGAGATA	0.125
ATTATAAC	0.0157

Sequence	PBM E-score
CTGGGCCA	-0.269
CCTGGATC	-0.0952
ATCTTCTC	0.178
CTGCGCAG	0.0626
CTCACGCA	0.0693
CCATGCCC	0.0192
ACTTGTTA	0.0318
ACCCGCAA	0.0725
CGAACCTA	-0.0323
GCTGGCAA	0.0154
ATTAGTGC	0.15
TCAGGCGA	-0.115
CACAGCGG	0.0611
AATAGGGA	0.0428
GAACAATA	0.253
ATGCCAAC	-0.0832
CAACGATA	-0.11
AAATCTAG	-0.144
GCGACTGA	-0.185
GTGTTAGA	-0.0967
AGGAGTCG	-0.215
CAGCACAG	-0.0892
AGATCCGC	0.351
ATCACGCC	0.0371
CCTACGCC	-0.298

Sequence	PBM E-score
AGAGCGAG	-0.0919
ACACACCA	-0.0588
GTAGACGA	-0.201
TCATAGAA	-0.0617
GACGATAC	-0.0065
GAAAGTAC	0.0719
AGAGCCCC	-0.225
ACACTTGA	-0.202
CCACATAC	-0.0749
GACCAACA	0.142
ATAGAAGA	-0.121
GCATCATA	-0.063
ACATAGGT	-0.165
GCAAATGA	-0.00701
AATTTGCT	-0.114
CAAATGCA	-0.243
TAGTATGA	0.0766
CGAAAGAG	0.00908
ACCGCTAA	0.00866
CATTATCA	-0.167
AGACAATA	0.0405
AGCGAAAG	-0.111
AATTTAAT	0.128
GCGAGAGC	0.0738
GATTACGC	-0.0604

Sequence	PBM E-score
ACCCGGGG	0.357
TAGTGGGA	-0.208
CCGAGCCA	0.295
TCAGGAAA	-0.128
ATATTGGA	-0.0572
AAGTGATC	-0.176
CTCGGTCA	0.00197
TACACGCA	-0.342
TAAGCCAA	-0.0271
ACACAATA	-0.0788
GACAGTGA	-0.137
TACGGACA	0.225
AGAATGTC	-0.188
ATCTTGTA	-0.0486
AGCCTCTG	-0.249
GATCTAGA	-0.235
ACATCCAT	-0.166
AACTAAGA	-0.0143
CCCAAAGA	-0.0443
CAGGTGTC	-0.105
GAAAGCGA	0.0803
AACTGCTA	-0.131
CCTGTTCC	0.288
CGTCGCAC	0.192
ACGGGATG	0.283

Sequence	PBM E-score
CGGTACGC	0.0104
GGGCAGTA	0.0818
GGGTCACA	-0.288
GGAGCGAA	-0.0691
ATGGCATC	-0.0396
AGATTTCA	-0.12
TATTAAGA	-0.227
ATCTATTC	0.0306
GTATTTGA	-0.294
ACCCAGAT	-0.133
ATAAGTCC	0.111
GACGTGAC	-0.182
CGGACGTC	0.147
CGCCATAA	-0.037
GAGAACAC	-0.119
GAACCACA	0.109
TCGAAGCA	-0.288
AACACCTC	-0.299
CGCATCGA	0.0646
TATCACCA	-0.0892
AGCCAGCT	-0.164
GGTACAAA	-0.166
CTCGATGA	0.00119
AATTGCCA	0.0322
CCATAGCG	-0.0119

Sequence	PBM E-score
ATTGTCCG	0.339
CATGAGCC	-0.215
AATCACTA	0.0272
ATTGGGGA	-0.108
CGCAGTAG	-0.0811
AGCCTTCA	-0.152
CTAGTGAC	-0.102
TGCAGCCA	0.0812
CTCGCCCA	-0.0292
TAAAGCAA	-0.0439
CATTGCAA	-0.11
AATGCCGT	0.36
AGGACGAA	0.163
CAGACAGG	-0.046
GGCGATCA	0.0313
CCTATACC	-0.114
AGATTGGA	0.0347
CGCCAAAC	-0.00467
GAACCTAA	0.0758
GGAGGGAA	0.0993
CCGATATC	0.254
AAGGGCTG	-0.176
GAAGATGC	-0.0857
ACGCGGTG	0.0206
AATACAAA	0.171

Sequence	PBM E-score
TACAGTGA	-0.113
AGCAAGGC	-0.0584
CCAATCGC	0.012
TCCAGCCA	-0.241
ACCCTTGG	-0.141
TGCAGGCA	-0.203
AGATGCTA	-0.165
ACACGTGG	0.0406
AAATGCAT	0.112
ATGACAGG	-0.206
CTGTCGGA	0.261
GGCATAAC	-0.133
AACATGGG	0.132
ACAAGTCA	-0.14
CGAAACAC	0.127
GACTTCCC	0.0859
GCTCGACA	-0.263
CAGGCCTC	-0.218
CACGATTC	0.103
AACAAGGC	-0.245
CGCATAAC	0.0802
ATTACGTC	-0.161
